Part of at least one peptide drawing is inferred or uncertain, most often the ends. Residues, ends and D or L forms follow the SMILES beside them.
Legend:
[1] = tested on: Smooth Muscle Cells of Rat Portal Vein; assay: Spontaneous contractile activity of rat portal vein smooth muscle specimens; type: cell-based; conditions: 10^-6 g/ml
Experimental: Rat portal vein SMS samples were surgically isolated from random bred rats weighing 200-250 g. The suitability of each isolated rat portal vein SMS was established by measuring the spontaneous contraction response and its contractile response of the specimen to potassium chloride (KCl) as follows. Each isolated SMS was placed into an organ bath with standard Krebs-Henseleit (KH) solution at 35° C. Then, 0.5 ml of physiological saline were added into the organ bath. In this procedure, one end of the smooth muscle strip was fixed, while the other end of the muscle strip was connected with a probe which transmitted contraction-induced signals to an analog-to-digital converter. The spontaneous contraction curve for each SMS was recorded by taking repeated measurements over a 1-minute period. Next, 0.5 ml of a 600 mM solution of KCl in physiological saline was added to the SMS sample/organ bath to achieve a final concentration of 60 mM KCl. KCl induces contraction of rat portal vein tissue at a fmal tissue concentration of about 60 mM.
The KCl-induced contraction curve for each specimen sample was then recorded over the next 5-minute period. […] During this stabilization period, the spontaneous contraction curve for each SMS was verified by monitoring the data obtained from analog-to-digital converter.
To each SMS in the organ bath prepared according to Steps 2 and 3 above, 0.5 ml of physiological saline was added, and the spontaneous contraction curve was recorded for 1 minute. Each spontaneous contraction curve served as baseline (control) curve for comparison with the respective spontaneous contraction of each SMS in the presence of a test substance or reference substance.
(§1) Spontaneous contraction curve values for each SMS were recorded by making repetitive measurements of the spontaneous contractile activity of each sample at 2, 5, 10, and 15 minutes after the addition of the test or reference substance to each SMS/organ bath. Next, 0.5 ml of a solution of 600 mM solution of KCl in […] in the organ bath until a final concentration of 60 mM KCl was achieved. The contractile activity of each SMS was then measured for 5 minutes.

rats = assay: CPK activity in blood serum 1 hour after coronary occlusion; type: in vivo
Experimental: White random-bred male rats weighing approximately 200 g were anesthetized using a light ether administration and then immobilized and artificially ventilated. […] Immediately after ligation, a test substance, positive, control substance, or negative control substance (described below) was administered to a rat through a catheterized femoral vein. Each dose of each test substance or positive or negative control substance was administered to an experimental or control group of 9 test rats. In this study, GE and VT served as test substances, propranolol served as the positive control substance, and physiological saline served as the negative control substance. Each test rat in an experimental group was given a dose of either 0.1, 1.0, or 10.0 milligram GE per kilogram of body weight of the subject animal (mg/kg) or 0.1, 1.0, or 10.0 milligram VT per kilogram of body weight of the animal. Each animal of the positive control group received an intravenous dose of 0.5 mg of β-adrenergic blocking agent, propranolol (Obzidan, Germed, Germany) per kilogram of body weight. Propranolol is commonly used to manage cardiac arrhythmia and there is some evidence that the agent may reduce the extent of ischemic damage to the heart. […] Each animal of the negative control group received physiological saline.
One hour after initiation of the coronary artery occlusion, each test animal was sacrificed, its blood was collected, and the CPK activity in its blood serum was measured. CPK activity was determined by using a standard biochemical method, such as that commercially available from the Lachema Company (Czechia) in its test kit, and by following the manufacturer's process instructions included in the package insert.
As a supplementary control for the possible trauma caused by the surgical procedure, a group of 9 sham-operated rats was included in the study. These test animals were subjected to chest dissection, but not to coronary artery occlusion. These "sham-operated" animals were not treated with any test or control substances and were euthanized 1 hour after surgery. […]

Rat Portal Vein = assay: KCl-induced tonic contraction of rat portal vein smooth muscle specimens; type: cell-based
Experimental: as §1

Structure (SMILES): CC(C)[C@H](N)C(=O)N[C@H](C(=O)O)[C@@H](C)O [VT, L-Valine-L-Threonine] (H-Val-Thr-OH)
- effect on spontaneous contractions (amplitude and area under curve) [1]: appreciably reduced the amplitude of and area under the contraction curve
- Amplitude of spontaneous contraction (% of Control) ([1]; 2 min after application): 89.24%
- Area Under Curve of spontaneous contraction (% of Control) ([1]; 2 min after application): 139.92%
- Amplitude of spontaneous contraction (% of Control) ([1]; 5 min after application): 51.79%
- Area Under Curve of spontaneous contraction (% of Control) ([1]; 5 min after application): 59.08%
- Amplitude of spontaneous contraction (% of Control) ([1]; 10 min after application): 36.34%
- Area Under Curve of spontaneous contraction (% of Control) ([1]; 10 min after application): 45.93%
- Amplitude of spontaneous contraction (% of Control) ([1]; 15 min after application): 39.11%
- Area Under Curve of spontaneous contraction (% of Control) ([1]; 15 min after application): 36.35%
- CPK Activity in blood serum (rats; 0.1 mg/kg i.v.): 0.119 (±0.032) mcCat/L
- CPK Activity in blood serum (rats; 1.0 mg/kg i.v.): 0.129 (±0.020) mcCat/L
- CPK Activity in blood serum (rats; 10.0 mg/kg i.v.): 0.176 (±0.033) mcCat/L
- Area Under Curve of KCl-Induced Contraction (% of control) (Rat Portal Vein; 10^-6 g/ml, 60 mM KCl): 93.46%
- effect on tonic contraction induced by KCl (Rat Portal Vein; venous smooth muscle specimens): neither GE nor VT effected the character of the tonic contraction

Reference: patent US5972894A, “Peptides having potassium channel opener activity” (Cytran, Inc., priority 1997, dated 1999)
